{"source": "PubChem BioAssay AID1346428", "about": "(National Center for Advancing Translational Sciences (NCATS), 2018)", "note": "Several values for one entry are separate records, joined by “and”; a condition that tells them apart may be missing. Equal values may be shown once. Among all 48,000 compounds or so, about 1,200 (2.5%) were called active. Inconclusive results (about 2%) are left out.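 Rule for the calls: active = activation of at least 60% and not above a set upper limit (about 1 call in 100 departs from these limits); inconclusive = activation of 40% to 60%, or above that upper limit; inactive = activation under 40%.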 This is one part of the list.", "data": [{"target": "Probable G-protein coupled receptor 32 (Homo sapiens) (UniProt O75388)", "sequence (O75388 whole entry, looked up)": "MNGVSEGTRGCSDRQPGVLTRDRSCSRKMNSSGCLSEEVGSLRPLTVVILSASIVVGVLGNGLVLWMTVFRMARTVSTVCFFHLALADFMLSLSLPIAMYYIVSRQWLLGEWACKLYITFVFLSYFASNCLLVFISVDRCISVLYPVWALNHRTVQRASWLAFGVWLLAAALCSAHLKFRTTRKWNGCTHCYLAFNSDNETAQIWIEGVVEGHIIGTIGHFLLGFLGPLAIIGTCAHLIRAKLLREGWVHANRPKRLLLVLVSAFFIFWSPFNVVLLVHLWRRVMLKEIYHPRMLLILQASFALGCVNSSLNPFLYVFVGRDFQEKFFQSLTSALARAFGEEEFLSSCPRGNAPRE", "assay": "qHTS for Agonists of Human Resolvin D1 Receptor DRV1; note: 0% is about no effect", "details": "CHO-K1 GPR32 beta-arrestin PathHunter luminescence, 90 min; at 76.9 µM; hits give high values; zero percent set by DMSO-only wells", "method_in_brief": "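Readings come from a cell-based beta-arrestin complementation format: CHO-K1 GPR32 stable cells (2,500/well) treated 90 min with compounds, then beta-Gal substrate added for 1 h before chemiluminescence imaging.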", "values": [{"smiles": "CC(C)c1ccc(CNC(=O)c2ccc(N3CCCC3)c(NC(=O)NCc3ccccc3)c2)cc1", "activation": "inactive: -31.7%"}, {"smiles": "O=C(c1ccc2c(c1)CCN2S(=O)(=O)c1ccccc1)N1CCN(c2ccccc2F)CC1", "activation": "inactive: -4.37%"}, {"smiles": "O=C(Nc1ccccc1Cl)[C@H](CSCc1ccccc1)N1Cc2ccccc2C1=O", "activation": "inactive: -10.8%"}, {"smiles": "COc1ccccc1N1CCN(S(=O)(=O)c2ccc(F)c(C(=O)Nc3ccc(Cl)cc3C(F)(F)F)c2)CC1", "activation": "inactive: -14.3%"}, {"smiles": "O=C(CN1C(=O)CSc2ccc(S(=O)(=O)N3CCCC3)cc21)NCc1ccccc1Cl", "activation": "inactive: -21.6%"}, {"smiles": "COc1ccc(-c2nnc(SC(C)C(=O)O)o2)cc1", "note": "(centres undefined)", "activation": "inactive: 21%"}, {"smiles": "CSc1ccc(-c2nc3cccc(C)n3c2Nc2ccc3c(c2)OCO3)cc1", "activation": "inactive: -19.4%"}, {"smiles": "COc1ccc(N2C(=O)C(CC(=O)Nc3ccccc3)N(CCC3=CCCCC3)C2=O)cc1", "note": "(centres undefined)", "activation": "inactive: 4.93%"}, {"smiles": "CCCCNC(=O)CCc1c(C)nc2cc(-c3ccccc3)nn2c1C", "activation": "inactive: -3.78%"}, {"smiles": "CC(=O)N1CCCc2cc(S(=O)(=O)N3CCCC(C(=O)NC(C)C)C3)ccc21", "note": "(centres undefined)", "activation": "inactive: -2.15%"}, {"smiles": "Cc1ccc(OCC(=O)Nc2c(C(=O)c3ccc(Cl)cc3)oc3ccccc23)cc1C", "activation": "inactive: -5.54%"}, {"smiles": "CC(C)Oc1ccc(CNC(=O)c2sc3ncccc3c2-n2cccc2)cc1", "activation": "inactive: -7.75%"}, {"smiles": "CO[C@H]1C=CO[C@@]2(C)Oc3c(C)c(O)c4c(O)c(c(/C=N/N5CCN(C)CC5)c(O)c4c3C2=O)NC(=O)/C(C)=C\\C=C[C@H](C)[C@H](O)[C@@H](C)[C@@H](O)[C@@H](C)[C@H](OC(C)=O)[C@@H]1C", "activation": "inactive: -81.2%"}, {"smiles": "CCOc1ccc(C2c3c(oc4ccc(C)cc4c3=O)C(=O)N2CCCN(C)C)cc1OC", "note": "(centres undefined)", "activation": "inactive: -26.7%"}, {"smiles": "Cc1cc(-c2ccc(S(=O)(=O)Nc3ccc(Cl)cc3)cc2)on1", "activation": "inactive: 2.49%"}, {"smiles": "COc1ccc(-n2nc(C(=O)Nc3ccc(C(C)=O)cc3)nc2-c2ccccc2)cc1", "activation": "inactive: -0.488%"}, {"smiles": "Cc1ccccc1Nc1nc(N)c(C(=O)c2ccccc2Cl)s1", "activation": "inactive: -32.2%"}, {"smiles": "Cc1cc2oc(C(=O)N(Cc3ccc(N(C)C)cc3)Cc3ccco3)c(C)c2cc1Cl", "activation": "inactive: -28.8%"}, {"smiles": "CCCCc1ccc(NC(=O)CSc2nc(=O)[nH]c3c2CCCC3)cc1", "activation": "inactive: 6.56%"}, {"smiles": "O=C(CSc1nc2c([nH]c3ccccc32)c(=O)n1-c1ccccc1F)Nc1cccc(C(F)(F)F)c1", "activation": "inactive: -11.6%"}, {"smiles": "O=C1C(=O)N(C2CCN(C(=O)c3cccc(Cl)c3)CC2)CCN1Cc1ccc(F)cc1", "activation": "inactive: -10.7%"}, {"smiles": "CCOc1ccc(S(=O)(=O)N2CCN(Cc3nc4ccc(C)cc4o3)CC2)cc1", "activation": "inactive: -7.05%"}, {"smiles": "Cc1ccc(C)c(NC(=O)CSc2ccc3nc(-c4ccccc4)cn3n2)c1", "activation": "inactive: -5.69%"}, {"smiles": "CCOc1ccc(CCNC(=O)Cn2c(-c3cccs3)cc3ccccc32)cc1OCC", "activation": "inactive: -49.4%"}, {"smiles": "O=C(Nc1cccc(C(=O)OCc2cc(=O)n3nc(C4CC4)sc3n2)c1)c1cccc(Cl)c1", "activation": "inactive: -9.62%"}, {"smiles": "COc1ccc(Nc2oc(/C=C/c3ccccc3OC)nc2C#N)cc1", "activation": "inactive: 8.36%"}, {"smiles": "COC(=O)CCN(c1ccccc1)C(CNS(=O)(=O)c1ccccc1)c1ccccc1", "note": "(centres undefined)", "activation": "inactive: -8.27%"}, {"smiles": "CCOc1ccc(NC(=O)c2cnc3sc(N4CCOCC4)nn3c2=O)cc1", "activation": "inactive: -12.9%"}, {"smiles": "COc1cccc(N2CC(NC(=O)COc3ccccc3F)CC2=O)c1", "note": "(centres undefined)", "activation": "inactive: -8.16%"}, {"smiles": "O=C(Nc1ccccc1Br)c1cc(CN2CCCC2)on1", "activation": "inactive: -9.24%"}, {"smiles": "Cc1nc2cc(-c3cccc(F)c3)nn2c(C)c1CCC(=O)NC(C)c1ccccc1", "note": "(centres undefined)", "activation": "inactive: -1.6%"}, {"smiles": "COc1cc(C(=O)NCCc2sc(-c3cccc(F)c3)nc2C)cc(OC)c1OC", "activation": "inactive: -12.4%"}, {"smiles": "O=C(CSc1oc(-c2ccc(F)cc2)nc1S(=O)(=O)c1ccccc1)NC1CCCCC1", "activation": "inactive: -7.69%"}, {"smiles": "CCSc1nnc(NC(=O)c2cc(=O)c3cc(C)ccc3o2)s1", "activation": "inactive: 28.3%"}, {"smiles": "CCc1ccc(CNC(=O)c2ccc(-c3nc(CSc4ccc(C)cc4)c(C)o3)cc2)cc1", "activation": "inactive: -10.4%"}, {"smiles": "COC(=O)c1c(NC(=O)C2c3ccccc3Oc3ccccc32)sc2c1CCC(C(C)(C)C)C2", "note": "(centres undefined)", "activation": "inactive: 1.75%"}, {"smiles": "COc1cc2c(cc1NC(=O)c1ccccc1C)n(C)c(=O)n2C", "activation": "inactive: 15.8%"}, {"smiles": "COc1cccc(CNC(=O)CCn2cnc3ccccc3c2=O)c1", "activation": "inactive: -12%"}, {"smiles": "COc1cccc(-c2cc(C(=O)NCc3ccc(F)cc3)no2)c1", "activation": "inactive: 37.8%"}, {"smiles": "CCOC(=O)c1ccc(NC(=O)c2oc3c(c2C)-c2nn(Cc4ccccc4Cl)cc2CC3)cc1", "activation": "inactive: -30.4%"}, {"smiles": "CC(C)CNc1ncnc2onc(-c3ccc(Cl)cc3)c12", "activation": "active: 90.1%"}, {"smiles": "COc1ccc(-c2nnc(SCC(=O)Nc3c(C)cccc3C)nc2-c2ccc(OC)cc2)cc1", "activation": "inactive: -11.4%"}, {"smiles": "CCCCOc1ccccc1C1CC(=O)Nc2cc(C)c(C)cc21", "note": "(centres undefined)", "activation": "inactive: -1.03%"}, {"smiles": "NC1(C(=O)O)CC1", "activation": "inactive: -3.84%"}, {"smiles": "CC(CCc1ccccc1)NC(=O)Cn1ncc2c3ccccc3n(Cc3ccccc3)c2c1=O", "note": "(centres undefined)", "activation": "inactive: -9.75%"}, {"smiles": "O=C(CCN1C(=O)c2ccccc2Sc2ncccc21)Nc1ccc(F)cc1", "activation": "inactive: -19.8%"}, {"smiles": "COc1cc2c(cc1OC)n(CC(=O)c1ccc(C)cc1C)c(=O)n1nc(CCn3nc(C)cc3C)nc21", "activation": "inactive: -12%"}, {"smiles": "O=S(=O)(c1ccc(-c2cnc(C3CC3)o2)cc1)N1CCN(c2ccccc2F)CC1", "activation": "inactive: 8.48%"}, {"smiles": "CCN(CC)C(=O)c1ccc(O)c(OC)c1", "activation": "inactive: -5.92% and inactive: 7.45%"}, {"smiles": "Cc1nn2c(C)c(C(=O)N3CCN(c4ccc(Cl)cc4)CC3)cnc2c1-c1ccc(F)cc1", "activation": "inactive: -7.43%"}, {"smiles": "Cc1cccc(Nc2sc(C(=O)c3ccc(Cl)cc3)c(N)c2C(N)=O)c1", "activation": "inactive: -8.68%"}, {"smiles": "COc1ccc(NC(=O)c2cc(-c3ccccc3F)no2)cc1", "activation": "inactive: 2.53%"}, {"smiles": "COc1cccc(CNC(=O)Cn2nc(C)c3sc4ccccc4c3c2=O)c1OC", "activation": "inactive: -0.55%"}, {"smiles": "O=C(NCCCN1CCN(c2cccc(Cl)c2)CC1)c1ccc2nc(Cc3ccccc3)oc2c1", "activation": "inactive: 8.91%"}, {"smiles": "Cc1ccc2c(=O)cc(CSc3ncn[nH]3)[nH]c2c1C", "activation": "inactive: 22.1%"}, {"smiles": "CCOC(=O)c1c(C)[nH]c(C)c1S(=O)(=O)N1CCC(C(=O)N2CCN(c3ccc(F)cc3)CC2)CC1", "activation": "inactive: 13.9%"}, {"smiles": "CCn1cc(C(=O)N2CCN(c3cccc(Cl)c3)CC2)c(=O)c2cc(S(=O)(=O)N3CCC(C)CC3)ccc21", "activation": "inactive: -21.4%"}, {"smiles": "C=Cc1ccc(Cn2c(C)c(CNCCc3ccc(OCC)cc3)c(C(=O)O)c2C)cc1", "activation": "active: 67.5%"}, {"smiles": "Cc1ccnc(NS(=O)(=O)c2ccc(NC(=O)c3ccc(C)c(C)c3)cc2)n1", "activation": "inactive: -10.1%"}, {"smiles": "Cc1cccc(C)c1OCC(=O)N(Cc1ccco1)Cc1ccco1", "activation": "inactive: -14.7%"}, {"smiles": "Cc1ccccc1CN1C(=O)c2ccccc2Sc2ccc(C(=O)NCCc3ccccc3)cc21", "activation": "inactive: -20.7%"}, {"smiles": "Cc1ccc2nc(NC(=O)c3ccc(S(=O)(=O)N4CCC(C)CC4)cc3)sc2c1", "activation": "inactive: 0.0013%"}, {"smiles": "CCc1cccc(CC)c1NC(=O)c1c(C)oc2ccc(O)c(CN3CCCC3)c12", "activation": "inactive: 0.05%"}, {"smiles": "CCCCNC(=O)c1ccc2c(c1)N=C(CC)c1ccccc1S2", "activation": "inactive: -22.8%"}, {"smiles": "Cc1ccc(N2CC(NC(=O)c3cccs3)CC2=O)cc1", "note": "(centres undefined)", "activation": "inactive: 0.0378%"}, {"smiles": "CN1CCN(CCNC(=O)c2cnn(-c3ccc(F)cc3)c2C2CCN(C(=O)OC(C)(C)C)CC2)CC1", "activation": "inactive: 4.86%"}, {"smiles": "O=C(CCCN1C(=O)c2cccnc2Oc2ccc(Cl)cc21)NCc1ccc(F)cc1", "activation": "inactive: -8.72%"}, {"smiles": "Cc1ccc(N2C(=O)CSC23C(=O)N(CC(=O)NCc2ccccc2)c2ccccc23)cc1", "note": "(centres undefined)", "activation": "inactive: -6%"}, {"smiles": "O=C(Nc1ccccc1)Nc1nnc(SCC(=O)N2CCCCC2)s1", "activation": "inactive: 13.5%"}, {"smiles": "CC1=C(c2ccc(C)c(C)c2)S(=O)(=O)N(Cc2ccc(C(=O)Nc3cc(F)ccc3F)cc2)C1=O", "activation": "inactive: -9.94%"}, {"smiles": "Cc1ccc2c(c1)C(=O)OC(C(=O)Nc1ccccc1C(=O)O)C2", "note": "(centres undefined)", "activation": "inactive: 20%"}, {"smiles": "CCOc1ccc(-n2cc(-c3ccccc3)c3c(NC4CCCC4)ncnc32)cc1", "activation": "inactive: -34.4%"}, {"smiles": "O=C(CN1C(=O)C2(SCC(=O)N2c2ccc(F)cc2)c2ccccc21)NC1CCCCC1", "note": "(centres undefined)", "activation": "inactive: -8.72%"}, {"smiles": "CCc1cccc(NC(=O)CN2CCCN(Cc3cccc(C)c3)S2(=O)=O)c1", "activation": "inactive: 46.5%"}, {"smiles": "COc1ccc(NC(=O)N2CCc3c([nH]c4ccc(OC)cc34)C2c2ccc(OC)cc2)cc1", "note": "(centres undefined)", "activation": "inactive: -24%"}, {"smiles": "COc1ccc2nc(N3CCN(C(=O)C4CC4)CC3)sc2c1", "activation": "inactive: 6.34%"}, {"smiles": "COC(=O)c1cc2oc3ccccc3c2n1Cc1c(F)cccc1Cl", "activation": "inactive: -13.7%"}, {"smiles": "CCN(CC)C(=O)C1CCCN(c2ncnc3onc(C)c23)C1", "note": "(centres undefined)", "activation": "inactive: 13%"}, {"smiles": "COc1ccc(N2CCN(C(=O)c3ccc4nc(N5CCC(C)CC5)sc4c3)CC2)cc1", "activation": "inactive: 10.7%"}, {"smiles": "Cc1ccc(Cl)cc1N(C)C(=O)c1cnc(N2CCOCC2)c2ccccc12", "activation": "inactive: -10.1%"}, {"smiles": "COc1cccc(-c2nc3c(C#N)c[nH]n3c2NC2CCCCC2)c1OC", "activation": "inactive: -28%"}, {"smiles": "CC(NC(=O)c1sc2ncccc2c1-n1cccc1)c1ccccc1", "note": "(centres undefined)", "activation": "inactive: -15%"}, {"smiles": "O=C(NCC(c1cccnc1)N1CCN(Cc2ccccc2)CC1)C(=O)Nc1cccc(F)c1", "note": "(centres undefined)", "activation": "inactive: -16.4%"}, {"smiles": "COc1cc(Nc2c(C#N)cnc3cc(OCCCN4CCN(C)CC4)c(OC)cc23)c(Cl)cc1Cl", "activation": "inactive: 45.9%"}]}]}
